# In all, about 110,000 compounds went through this assay and about 40 (0.04%) were called active. The inconclusive results got no clear call from the source; some entries with a clear call stand among them for comparison. The call rests on the fitted dose curve; in most records, active means well fitted curve in the direction sought with a large enough effect in the signal ratio (not every such curve was filed as active); inconclusive means small, poorly fitted or top-dose-only effect, or a change in a side signal; inactive means flat fitted curve, though single readings scatter; the % refers to the signal ratio. A potency beside an inconclusive call is a rough fit, not a confirmed value.
# Assay: IkB Signaling;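 on IkBa stabilization activation: 0% = basal untreated cells and 100% = reference inhibitor full response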
# Details: ABC-DLBCL IkBa-CBG/CBR dual luciferase ratio (green luciferase fused to IkBa over red control in OCI-Ly3 lymphoma cells), 4 h; IkBa stabilization activation: at 57.1 µM (top of the series), scaled: untreated 0%, proteasome inhibitor 100% unless noted
# Procedure, shortened: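 Luminescence ratio of IκBα-fused green versus native red beetle luciferase in OCI-Ly3 cells, 4 h post-doxycycline with compound; red signal alone, scaled from basal (0%) to zero light (-100%), flagged nonspecific or cytotoxic effects.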
# Potency means the concentration at half of the fitted maximal effect.
Structure (SMILES),IkBa stabilization activation,Potency
COCCCNC(=O)c1c(NC(=O)Cc2coc3c(C)c(C)ccc23)sc2c1CCCC2,inconclusive: -1.97% [signal inhibitor],–
CCCCOC(=O)c1c(N)n(-c2ccc(OC)cc2OC)c2nc3ccccc3nc12,inconclusive: -0.304% [signal inhibitor],–
CCC(Sc1nnc2c(n1)[nH]c1ccccc12)C(=O)Nc1nnc(C(C)C)s1 (stereo not drawn),inactive,–
COc1ccc(CNc2nc3nc(C)cc(C)n3n2)cc1OC,inactive,–
Cc1ccc(Sc2c(C)nn(-c3ccccc3)c2OC(=O)C(C)(C)C)cc1,inconclusive: 6.88% [signal inhibitor],–
COc1ccc(OC)c(NS(=O)(=O)c2cc3c(cc2Cl)N(C(C)=O)CCO3)c1,–,"inconclusive: 15.8 µM [signal inhibitor, partial curve]"
CCOc1ccc(NC(=O)CC2C(=O)N(c3ccc(F)cc3)C(=O)N2Cc2ccc(OC)c(OC)c2)cc1 (stereo not drawn),inconclusive: 2.63% [signal inhibitor],–
Cc1ccc(-c2cc(C(=O)Nc3cc([N+](=O)[O-])ccc3C)no2)cc1F,inconclusive: 18.3% [signal inhibitor],–
Cc1ccc(C)c2sc(NC(=O)c3ccc(S(=O)(=O)N4CCC(C)CC4)cc3)nc12,inconclusive: 2.47% [signal inhibitor],–
O=C(CSc1nc2cc(C(=O)NC3CCCC3)ccc2c(=O)n1CC1CCCO1)c1cccc(Cl)c1 (stereo not drawn),inconclusive: 18.6% [signal activator],–
COCCNC(=O)c1cc(-c2ccc3c(c2)OCO3)on1,inactive,–
C[Si](C)(C)Cl,inactive,–
COc1ccc(CCNc2oc(/C=C/c3cc(OC)c(OC)c(OC)c3)nc2C#N)cc1OC,inconclusive: 2.05% [signal inhibitor],–
CCOC(=O)c1ccc(N2C(=O)c3n[nH]c(-c4cccs4)c3C2c2ccc(OCC)cc2)cc1 (stereo not drawn),inactive,–
COc1ccc(OC)c(CCNC(=O)CS(=O)(=O)Cc2nc(-c3cccc(Cl)c3)oc2C)c1,inconclusive: 3.41% [signal inhibitor],–
CCOc1ccccc1NC(=O)NCc1ccc2c(c1)CCN2C(=O)c1ccccc1,inactive,–
O=C(Nc1ccc(N2CCOCC2)c(Cl)c1)C1CCCCC1,inactive,–
CN(C)c1ccc(CN(Cc2ccco2)C(=O)c2ccc(C(C)(C)C)cc2)cc1,inconclusive: 0.0512% [signal inhibitor],–
Cc1oc(-c2cccc(Cl)c2)nc1CSc1nncn2c1cc1occc12,inconclusive: 0.347% [signal inhibitor],–
[O-][n+]1onc2c1CCC1N(O)C(c3ccccc3)CC21O (stereo not drawn),inactive,–
Cc1cc(C)c2c(n1)nn1c(NCCN3CCOCC3)cc(C)nc21,inactive,–
O=C(Nc1ccc(F)cc1)N(CCCN1CCOCC1)Cc1cc2cc3c(cc2[nH]c1=O)OCCO3,inactive,–
CN1Cc2cc(C(=O)c3cc(Cl)cc(CSc4ncccn4)c3O)cnc2NC1=O,inconclusive: 9.35% [signal activator],–

Structure (SMILES),IkBa stabilization activation,Potency
COc1cccc(-n2c(=O)c3c(C)c(C)sc3n(CC(=O)NCCc3ccc(OC)c(OC)c3)c2=O)c1,inactive,–
Cc1ccc(Cn2c(C(=O)O)c(CNCc3ccc(OC(C)C)cc3)c3ccc(C)cc32)cc1,inconclusive: -3.26% [signal inhibitor],–
NS(=O)(=O)c1ccc(NC(=O)CCC2CCCCC2)cc1,inactive,–
O=S(=O)(NCc1cn2ccsc2n1)c1cccs1,inactive,–
COc1cccc(OCc2nc3ccccc3n2CCOc2ccc(C)cc2)c1,inconclusive: 1.41% [signal inhibitor],–
Cn1c(=O)oc2cc(S(=O)(=O)NC(Cc3ccccc3)C(=O)Nc3ccc(F)cc3)ccc21 (stereo not drawn),inconclusive: 5.43% [signal inhibitor],–
O=C(CSc1ncn(-c2ccccc2)n1)Nc1ccc(Br)cn1,inconclusive: 5.38% [signal inhibitor],–
CC1=C(c2ccc(Cl)cc2)S(=O)(=O)NC1=NCCCN1CCN(c2cc(C)ccc2C)CC1,inconclusive: 0.349% [signal inhibitor],–
CC1C(=O)Nc2ccc(S(=O)(=O)N3CCCCC3)cc2NC1=O (stereo not drawn),inconclusive: 1.01% [signal inhibitor],–
CCOC(=O)c1cc(-c2ccc(OC)cc2)n(CCC(=O)Nc2ccccc2OC)c1C,inconclusive: 6.32% [signal inhibitor],–
CCOc1ccccc1NC(=O)CN1C(=O)COc2ccc(S(=O)(=O)N3CCOCC3)cc21,inconclusive: 0.298% [signal inhibitor],–
O=C(O)C1C(C(=O)O)C(C(=O)O)C1C(=O)O (stereo not drawn),"inactive: 0.398% [at 11.4 µM, scaled: untreated 0%, proteasome inhibitor 100%]",–
CCOc1ccc(NCc2cccn2-c2nnc(N3CCC(C(=O)NCC(C)c4ccccc4)CC3)s2)cc1 (stereo not drawn),inconclusive: -0.292% [signal inhibitor],–
COc1nc(C#N)nc(N(C)C)n1,inactive,–
COc1ccc(C2c3c(-c4ccccc4O)n[nH]c3C(=O)N2CCc2ccc(OC)c(OC)c2)cc1 (stereo not drawn),inconclusive: -2.62% [signal inhibitor],–
CCN(c1ccccc1)S(=O)(=O)c1ccc(NC(=O)c2nc(SC)ncc2Cl)cc1,inconclusive: -0.624% [signal inhibitor],–
CCN(CC)c1ccc(NC(=O)C2CCN(c3nnc(-n4cccc4)s3)CC2)c(C)c1,inconclusive: 0.925% [signal inhibitor],–
O=c1c2sc3ccccc3c2n(Cc2cccc(F)c2)c(=O)n1Cc1ccccc1,inconclusive: -0.94% [signal inhibitor],–
COc1cccc2cc(-c3cn4cccc(C)c4n3)c(=O)oc12,inactive,–
O=C(NCc1cccs1)c1ccc2c(=O)n3nc(Nc4ccccc4)sc3nc2c1,–,"inconclusive: 39.8 µM [rising, single point]"
Cc1ccc2c(c1Br)C(O)(CC(=O)c1ccc(F)cc1)C(=O)N2 (stereo not drawn),–,inconclusive: 31.6 µM [signal inhibitor]
COc1ccccc1N(C(=O)NCc1ccccc1)C1=NCC(C)S1 (stereo not drawn),inconclusive: 3.47% [signal inhibitor],–
CCOC(=O)c1ccc(N2C(=O)c3[nH]nc(-c4ccccc4)c3C2c2ccc(CC)cc2)cc1 (stereo not drawn),inconclusive: 3.71% [signal inhibitor],–

Structure (SMILES),IkBa stabilization activation,Potency
Cc1c(Cl)cccc1NC(=O)CC1Oc2ccccc2NC1=O (stereo not drawn),inconclusive: 3.34% [signal inhibitor],–
O=C(c1ccc2c(c1)N(Cc1ccccc1F)C(=O)c1ccccc1S2(=O)=O)N1CCC(Cc2ccccc2)CC1,inconclusive: 2.31% [signal inhibitor],–
COc1ccc(NC(=O)CSc2nc3ccccc3c(=O)n2CCC(=O)N2CCCCC2)cc1,inconclusive: 1.14% [signal inhibitor],–
CC(C)c1ccc(Cn2c(COc3ccccc3)nc3ccccc32)cc1,inconclusive: 13.2% [signal inhibitor],–
CCn1nc(C)c2c(-c3ccccc3)cc(=O)n(C(C)C(=O)NCCC(C)C)c21 (stereo not drawn),inconclusive: 8.38% [signal inhibitor],–
CC(=O)Nc1ccc(NC(=O)CCc2nc3cccnc3n2Cc2cccs2)cc1,inconclusive: 0.836% [signal inhibitor],–
COc1ccc(CNS(=O)(=O)c2ccc(N3CCCCS3(=O)=O)cc2)cc1,inactive,–
CC1CCN(Cc2c(O)ccc3c(=O)c(Oc4ccccc4Cl)c(C(F)(F)F)oc23)CC1,inconclusive: 1.99% [signal inhibitor],–
CSc1nsc(SC)c1NC(=O)OC1CCCCC1,inconclusive: 8.66% [signal inhibitor],–
COc1ccc(NC(=O)CC2C(=O)N(c3cccc(OC)c3)C(=O)N2CCc2cccs2)cc1 (stereo not drawn),inconclusive: 3.45% [signal inhibitor],–
Cc1ccc(NC(=O)Cn2c(=O)n(Cc3nc(-c4ccccc4)no3)c(=O)c3cc4c(cc32)OCO4)cc1F,inconclusive: 2.41% [signal inhibitor],–
CC(=O)[C@@H]1CC[C@@H]2[C@@H]3CC=C4C[C@H](OS(=O)(=O)O)CC[C@@]4(C)[C@H]3CC[C@]21C,inactive,–
CC(C)(C)OC(=O)N1CCC(c2c(C(=O)NCc3cccc(Cl)c3)cnn2-c2ccc(F)cc2)CC1,inconclusive: -3.91% [signal inhibitor],–
CN[C@@H]1NC(=O)c2ccccc2N1Cc1ccc(F)cc1,"inactive: 5.38% [at 11.4 µM, scaled: untreated 0%, proteasome inhibitor 100%]",–
COc1ccc(-n2c(-c3ccc(C)cc3)cc3c2CC(C)(C)CC3=O)cc1Cl,inconclusive: 2.4% [signal inhibitor],–
COc1ccc(-c2nc(SCC(=O)NC3CCCC3)c(-c3ccc(F)cc3)[nH]2)cc1,inconclusive: -0.302% [signal inhibitor],–
COc1ccccc1Cn1c(CNS(=O)(=O)c2ccc(C(C)C)cc2)nc2cccnc21,inconclusive: 2.19% [signal inhibitor],–
O=C(c1ccc2c(c1)N(Cc1ccc(F)cc1)C(=O)c1ccccc1S2(=O)=O)N1CCCC1,inconclusive: -0.554% [signal inhibitor],–
COc1ccc(CNC(=O)c2nc(SCc3ccccc3F)ncc2Cl)cc1,inconclusive: -2.36% [signal inhibitor],–
CC(NC(=O)c1ccc2c(c1)CCN2S(=O)(=O)c1ccccc1)c1ccccc1 (stereo not drawn),inconclusive: 3.38% [signal inhibitor],–
Fc1ccccc1Cc1cn2cc(-c3ccc(Cl)cc3)nc2s1,–,"inconclusive: 12.6 µM [signal inhibitor, partial curve]"
O=c1c2ccccc2sn1-c1cc(S(=O)(=O)N2CCOCC2)ccc1N1CCOCC1,inconclusive: 1.37% [signal inhibitor],–

# From PubChem BioAssay AID445 (National Center for Advancing Translational Sciences (NCATS), 2006)
